According to paper PMC7819943, “Rice protein-binding microarrays: a tool to detect cis-acting elements near promoter regions in rice”:
Some of the results follow.

What follows are sequences tested against T1, OsWOX13 (Oryza sativa, UniProt Q5QMM3 1-267) (assay: protein-binding microarray (RPBM); PBS, 2% BSA, 51.3 ng/ul salmon testes DNA, 50 uM zinc acetate, 200 nM TF, 25 C, 1 h; high values mean tight binding). Settings: protein: recombinant; tags: N-terminal polyhistidine and DsRed monomer fusion (pET32a); label: CyDye5-dUTP incorporated in the synthesized complementary strand; 3' TTTTT single-stranded linker to array surface; dsDNA, one strand shown.
T1 sequence: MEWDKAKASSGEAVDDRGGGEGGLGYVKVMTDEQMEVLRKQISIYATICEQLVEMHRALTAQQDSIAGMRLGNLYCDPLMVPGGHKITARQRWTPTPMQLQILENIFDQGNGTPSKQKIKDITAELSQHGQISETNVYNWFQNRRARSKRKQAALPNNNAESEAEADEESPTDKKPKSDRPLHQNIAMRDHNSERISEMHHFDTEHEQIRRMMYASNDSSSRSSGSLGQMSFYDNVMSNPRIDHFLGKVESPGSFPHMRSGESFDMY
In short: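 The binding signal is fluorescence intensity per array feature (arbitrary units). Readings came from an Axon 4000B scanner after a washed, 2% BSA-blocked, double-stranded custom Agilent array had been incubated for 1 h at 25 °C with 200 nM protein and 50 µM zinc acetate. The protein was a Ni–NTA-purified transcription factor fused N-terminally to polyhistidine and DsRed, expressed in E. coli BL21-CodonPlus.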

Sequence	binding signal
AAAGATTAGAACATTCAGCTAAGTGTCTTCCTGCTGATATCGGAGTCACCTAGTGCAG	5320 fluorescence intensity (a.u.)
ACATGAACATATATAGATTGACATATAGTTTAGCAGTTCACGGAGTCACCTAGTGCAG	18300 fluorescence intensity (a.u.)
TTAAATTTGCAAAACAAATTTTGAAAACTTTCAATTCAGACGGAGTCACCTAGTGCAG	15000 fluorescence intensity (a.u.)
TTACTCGTCAATCCACCGATTACAGCTATCTCAAACGGAGCGGAGTCACCTAGTGCAG	8630 fluorescence intensity (a.u.)
ATCTCTAGATTAAGATTAATTTCAACTCTGGTCTGCAGTACGGAGTCACCTAGTGCAG	15200 fluorescence intensity (a.u.)
AAAATTGAAGATGTTTCCGCGGTTCATCATCCGTGTTTGACGGAGTCACCTAGTGCAG	6270 fluorescence intensity (a.u.)
TAGTGGGGAGGCGGTGGTGCTGCGGGGAGGGAGGGAGCACCGGAGTCACCTAGTGCAG	4360 fluorescence intensity (a.u.)
TGTCCATCAATTTCGTAACTACTATTAACTCACCAGGGACCGGAGTCACCTAGTGCAG	13900 fluorescence intensity (a.u.)
CAGCCCATCTGATTAGATAGAGTGCACTCAGTCCCTTCCCCGGAGTCACCTAGTGCAG	12300 fluorescence intensity (a.u.)
CTCACATAATGTGTGTGTAATTTGAGGTGCCAATGAAACGCGGAGTCACCTAGTGCAG	4620 fluorescence intensity (a.u.)
AGCTGAATTTAATTAACAATCACCGATGATGGCCGGTCGACGGAGTCACCTAGTGCAG	32000 fluorescence intensity (a.u.)
GAGCATAATTACGCCATGATTTGATAATGTGATGCTACAGCGGAGTCACCTAGTGCAG	40700 fluorescence intensity (a.u.)
ACCATCATTCCAAATTGATCATGATATATATTTATGCACCCGGAGTCACCTAGTGCAG	8060 fluorescence intensity (a.u.)
TTAGATTGGTTTTGCTCTTATGTGATAGACTAGTCAATATCGGAGTCACCTAGTGCAG	35500 fluorescence intensity (a.u.)
AACGAAATTAAGGAGATTACTGGAACCCAACTAGTAGTAACGGAGTCACCTAGTGCAG	6510 fluorescence intensity (a.u.)
ATGTGATTGACCTGAGAAAATGAAGTCAACTCAAAGTTCTCGGAGTCACCTAGTGCAG	44100 fluorescence intensity (a.u.)
AACAGACTAATCAAATAATGACCAGCTCAATCGACTCTAGCGGAGTCACCTAGTGCAG	7840 fluorescence intensity (a.u.)
AGGGTAAATTGGAACCATGCCATTATAATTTTGCAAAGTTCGGAGTCACCTAGTGCAG	11800 fluorescence intensity (a.u.)
ATTACAAATCTAGAAAATCAGAAATTGCGTCGACATCACACGGAGTCACCTAGTGCAG	3300 fluorescence intensity (a.u.)
ATGTTTGTTCTTACATGATTATCTTTAAGTGATCTCGGTCCGGAGTCACCTAGTGCAG	4010 fluorescence intensity (a.u.)
GCATCCCATTAATTGGATTAATCTCTAGCCACACGTAGTACGGAGTCACCTAGTGCAG	33700 fluorescence intensity (a.u.)

Sequence	binding signal
CCTTGATGATTGAACCAGTCAGCCCCAACATCTCTATAAACGGAGTCACCTAGTGCAG	25800 fluorescence intensity (a.u.)
TTTTCATATCATTTGATTCATTGTTAAATATACTTTCATGCGGAGTCACCTAGTGCAG	51700 fluorescence intensity (a.u.)
GGGAGCGGCGGAGGAGGAGGGCGCGGCGGCGGTGGGGTGGCGGAGTCACCTAGTGCAG	5290 fluorescence intensity (a.u.)
TGGATTAATTAGGCTCAAAAGATTCGTCTCGCGGTTTACACGGAGTCACCTAGTGCAG	18300 fluorescence intensity (a.u.)
GTTGTTAATTGTCTCGTGCATGTGATCCATGTATGCGCCACGGAGTCACCTAGTGCAG	25100 fluorescence intensity (a.u.)
CCTTCAATCAACACATACAATTTGGCAAAACTTACAAAATCGGAGTCACCTAGTGCAG	22700 fluorescence intensity (a.u.)
GGTTATAATTTAAATTCCGCTACTGACATTACTAATTCACCGGAGTCACCTAGTGCAG	15000 fluorescence intensity (a.u.)
AAAATATTAGAATGACTTACATTATGAAAGCAAGTTTCTTCGGAGTCACCTAGTGCAG	7040 fluorescence intensity (a.u.)
AATGTGTTAACTAATCAACTCGTCTCCCATCTCCTGCAAGCGGAGTCACCTAGTGCAG	5480 fluorescence intensity (a.u.)
CTCAAATTTATAGCTGAGACTGGTGAATATGAGATGGTTCCGGAGTCACCTAGTGCAG	5090 fluorescence intensity (a.u.)
CCCAACACAAATTAAAGATTATGACAACTGACAAGGTTCCCGGAGTCACCTAGTGCAG	11200 fluorescence intensity (a.u.)
ATGGACTATTAAATTGACTATAAATGATTTGGAGCTAGTACGGAGTCACCTAGTGCAG	22200 fluorescence intensity (a.u.)
TGTGATTTAGTTTGACCAGGGAGGCCATGATCTGCATGCACGGAGTCACCTAGTGCAG	15000 fluorescence intensity (a.u.)
AACCTATTTGCTCCATGATTTGATAATATGGTGGTACATTCGGAGTCACCTAGTGCAG	6770 fluorescence intensity (a.u.)
ATTATATAATCATTATTTATTTTATCATCACATGTTTTATCGGAGTCACCTAGTGCAG	3790 fluorescence intensity (a.u.)
ATTGGCTATTAAATTGACTATAAATGATTTTGAGCTGATACGGAGTCACCTAGTGCAG	20700 fluorescence intensity (a.u.)
GGATAACAAATAAACTTATTCCATCCAAACAGCTACCGTGCGGAGTCACCTAGTGCAG	3350 fluorescence intensity (a.u.)
CTAATTTTGAAGTTTAATTAATCATACGCTAATAGCTCATCGGAGTCACCTAGTGCAG	20500 fluorescence intensity (a.u.)
CCAATAATTGCGGTGGGGCCCACACCCAGCATACATAGCCCGGAGTCACCTAGTGCAG	18200 fluorescence intensity (a.u.)
ATCTACATGATTGTTTCAGATTATTGCTAATAATTCAGATCGGAGTCACCTAGTGCAG	31700 fluorescence intensity (a.u.)
CCGTTAAATTGAGTAGCTTAAATCATACAAGTATTAGTTGCGGAGTCACCTAGTGCAG	34800 fluorescence intensity (a.u.)

Sequence	binding signal
ATCTAATCGTTAATTAGGCTAGCGATCCGGTCGCTTTTGGCGGAGTCACCTAGTGCAG	12900 fluorescence intensity (a.u.)
AAGTGTGTTCCCTGATGATTAGTAGCTATTACTCTTCCAACGGAGTCACCTAGTGCAG	4790 fluorescence intensity (a.u.)
TTAAGTTGATGATATGTCTAGATTTATTGTACTAAAATGTCGGAGTCACCTAGTGCAG	3920 fluorescence intensity (a.u.)
CATCATTAAACTAATCATCCATACTGTTGAGGGTCCTAATCGGAGTCACCTAGTGCAG	4080 fluorescence intensity (a.u.)
AAGATTGGTTAATTACTATTTTACGAGCTCACATGTAATACGGAGTCACCTAGTGCAG	27900 fluorescence intensity (a.u.)
GATTAATTAGGTAGGGTTTCGTGAGAAACTCGTGAAGGGTCGGAGTCACCTAGTGCAG	12100 fluorescence intensity (a.u.)
CATTGAATTCAATTAATGGTTGGTTGAAAATCAAGATTCACGGAGTCACCTAGTGCAG	7480 fluorescence intensity (a.u.)
TTAATAAACTGACCGCATCACCCGCCGTACGTCGCCGTCGCGGAGTCACCTAGTGCAG	5290 fluorescence intensity (a.u.)
CTGACATATTAATTTTATTAATTTTGTTGAGTGATACATTCGGAGTCACCTAGTGCAG	21800 fluorescence intensity (a.u.)
ATCGGAAAACTTAATTATGTATGTAATCTCTCCCGGCCCCCGGAGTCACCTAGTGCAG	11800 fluorescence intensity (a.u.)
GATACAAATTAAACTCGACCCTATCTCGAGGGATATAAAGCGGAGTCACCTAGTGCAG	3240 fluorescence intensity (a.u.)
CATTCGCAGGATCGAGATTGATAACCGCAACTTTCCTGCACGGAGTCACCTAGTGCAG	5900 fluorescence intensity (a.u.)
AGTCAAAACATTTAGCATAATTGCAAATTTGCAAGTTGGGCGGAGTCACCTAGTGCAG	9050 fluorescence intensity (a.u.)
TAGATATAAATAAATTAGGAAAGATGATATGATGGATGGGCGGAGTCACCTAGTGCAG	8000 fluorescence intensity (a.u.)
GTAGACTAATAATAAAACAAATTACAGATTCTGCCTATAACGGAGTCACCTAGTGCAG	3280 fluorescence intensity (a.u.)
CTTTATAATAGTTAATTTATTTATTTATACTATTTTATAACGGAGTCACCTAGTGCAG	7550 fluorescence intensity (a.u.)
TTGGTATAATTTATCTGTAATACTAACAAATATTGTATAGCGGAGTCACCTAGTGCAG	4130 fluorescence intensity (a.u.)
GAGGGATTGAAGATTCGAATTTCGAAGTATTGAACCATTGCGGAGTCACCTAGTGCAG	13900 fluorescence intensity (a.u.)
CGAGTAATCATGCGTTAATGGTTTTATCGTTTTACGTGTGCGGAGTCACCTAGTGCAG	12300 fluorescence intensity (a.u.)
ACTGTTATAGCATTGATTATTTGCACTCTAGCTGCATGGTCGGAGTCACCTAGTGCAG	6060 fluorescence intensity (a.u.)
ATGTTGACTAATGTAAACGATTCAACATACTAGGATCATGCGGAGTCACCTAGTGCAG	5900 fluorescence intensity (a.u.)

Sequence	binding signal
ACTTGATAAACTGTGCATAGACAGGACAATACTTATCTCCCGGAGTCACCTAGTGCAG	14900 fluorescence intensity (a.u.)
ACTCATCATCAGTTTCTTTTGATTTGAATACTCATATTCACGGAGTCACCTAGTGCAG	6810 fluorescence intensity (a.u.)
AGGATTGGACTGGCATTAGCTATGTCACTGGTAGATGGGACGGAGTCACCTAGTGCAG	3470 fluorescence intensity (a.u.)
CTACACAAATTATAATTTGCTAAGGGAGTATGCTTGGTAACGGAGTCACCTAGTGCAG	35600 fluorescence intensity (a.u.)
TGATAGTAATTAATAAACTTGTAAGGTGCACCCTCTGAAACGGAGTCACCTAGTGCAG	3960 fluorescence intensity (a.u.)
GTAAATCTGAATAATTACAGGAATACCGAATACTCCTATGCGGAGTCACCTAGTGCAG	9600 fluorescence intensity (a.u.)
TAGCCATAAATTTATCACAAAATTACATGTTTAATACCAACGGAGTCACCTAGTGCAG	6940 fluorescence intensity (a.u.)
TGATGTTAATGAATCTAGATGGATATATATGTTTAGATTCCGGAGTCACCTAGTGCAG	3300 fluorescence intensity (a.u.)
TATATAATTATTTTCTTTCTACTGACTGGCTGTACATGCCCGGAGTCACCTAGTGCAG	29000 fluorescence intensity (a.u.)
CTGCTATGATTAATAGGATACACGGTATATTATTTCTGCACGGAGTCACCTAGTGCAG	13000 fluorescence intensity (a.u.)
ATAGGATTGTTGTTTTGTTTTGATAGGATAAGATGGGCTACGGAGTCACCTAGTGCAG	4000 fluorescence intensity (a.u.)
ATGTATAATTTATAATTCACTAAATTATTCTCATTCCTCTCGGAGTCACCTAGTGCAG	28400 fluorescence intensity (a.u.)
TGACAACATTGATTATAACATGTGATATATTACTTCAGAACGGAGTCACCTAGTGCAG	14100 fluorescence intensity (a.u.)
ACTTCTAATCAGTACTCTGCTTCCCCAATCCCAACCTGCGCGGAGTCACCTAGTGCAG	3380 fluorescence intensity (a.u.)
TCTGCAAACTAATCTATTGATTGAGTGGAGCGCATATTTTCGGAGTCACCTAGTGCAG	25100 fluorescence intensity (a.u.)
TGAGTTATGATTAGACAAGATTCTGAAACTAAACTTGTTTCGGAGTCACCTAGTGCAG	12900 fluorescence intensity (a.u.)
CGGGCGCCATGCCGTCAATCACACGCCATACAGATCAAACCGGAGTCACCTAGTGCAG	4590 fluorescence intensity (a.u.)
AATATGATTTCCTCTGCGTGGAAAGAGATCAATTTAGCGACGGAGTCACCTAGTGCAG	6400 fluorescence intensity (a.u.)
CTGTCCATTTAATTATTTGTTCAATCCATTGGAGCAGTAGCGGAGTCACCTAGTGCAG	14000 fluorescence intensity (a.u.)
ACAAATTGAATTCAATGTGGTGCAATGTACTTTGCATGCGCGGAGTCACCTAGTGCAG	33500 fluorescence intensity (a.u.)
GGCTTACAATGATTTGGCCGAACAATCTACGTCTCGTCTCCGGAGTCACCTAGTGCAG	5620 fluorescence intensity (a.u.)
